Data published in patent publication US20170035903A1 (GAMAMABS PHARMA, published 2017).

Target: T1, AMHR-II-ECD-Fc (R&D System) (human, UniProt Q16671 18-149)
T1 construct: Bought construct; also called recombinant AMHR-II; AMHR-II recombinant protein; not shown: Fc part of the bought AMHR-II-ECD-Fc (R&D System)
T1 sequence: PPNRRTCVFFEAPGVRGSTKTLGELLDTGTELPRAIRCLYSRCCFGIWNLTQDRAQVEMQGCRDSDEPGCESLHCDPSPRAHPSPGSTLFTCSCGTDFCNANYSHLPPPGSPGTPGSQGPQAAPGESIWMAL
Assay: ELISA, 50 ng per well AMHR-II-ECD-Fc coated, HRP anti-human F(ab')2 detection
Method: ELISA plates (96 wells, Maxisorp, NUnc) were coated overnight at +4° C. with 50 ng per well of AMHR-II-ECD-Fc (R&D System). Coated ELISA plates were blocked with PBS-BSA 4% for 2 hours at 37° C. and washed three times with PBS-Tween20 0.05%. […] The bound anti-AMHR-II antibodies were detected by adding HRP-conjugated F(ab′)2 goat anti-human F(ab′2) fragment specific (Interchim) diluted at 1:10000 and incubated for one hour at 37° C. Revelation was done with TMB (Sigma) and the reaction was stopped by adding H2SO4 1N (v:v). Absorbances were measured at 450 nm and binding data curves were analysis using GraphPad Prism.

B1: GM103 (3C23K-Antibody Drug Conjugate) (other)
heavy: QVRLVQSGAEVKKPGASVKVSCKASGYTFTSYHIHWVRQAPGQRLEWMGWIYPGDDSTKYSQKFQGRVTITRDTSASTAYMELSSLRSEDTAVYYCTRGDRFAYWGQGTLVTVSS[human IgG1 constant region left out here]
light: DIQMTQSPSTLSASVGDRVTITCRASSSVRYIAWYQQKPGKAPKLLTYPTSSLKSGVPSRFSGSGSGTEFTLTISSLQPDDFATYYCLQWSSYPWTFGGGTKVEIKRTVAAPSVFIFPPSDEQLKSGTASVVCLLNNFYPREAKVQWKVDNALQSGNSQESVTEQDSKDSTYSLSSTLTLSKADYEKHKVYACEVTHQGLSSPVTKSFNRGEC
modifications: conjugated with a MMAE drug payload; residues not stated for GM103
notes: the general formula bridges interchain disulfide bonds; also called ADC 3C23K; 3C23K antibody conjugated to the drug payload MMAE; copies: 2 + 2
EC50: 24 pM
